Laboratory results from patent US7951577B2, “Liquid crystals with reduced toxicity and applications thereof” (Wisconsin Alumni Research Foundation, priority 2003, dated 2011).

Legend:
[1] = system: 3T3 fibroblasts; details: 3T3 fibroblast, 4 hours under liquid crystal
Procedure: Various nematic liquid crystals were screened to investigate their toxicity with respect to animal cells. Calcein AM (Molecular Probes), an intracellular esterase cleavage substrate that increases fluorescence with cleavage, was used to report cell viability using 3T3 fibroblast and SV-40 transformed human corneal epithelial (HCEC) cells which were exposed to varying concentrations of the liquid crystal. After incubation, the liquid crystal was removed, the cells were rinsed, and Calcein AM was added in PBS. The amount of fluorescence, proportional to the number of viable cells, was determined using an automated fluorescence plate reader (Cytofluor 4000). Ethidium homodimer was also used to enumerate dead cells.
Cells were plated at a concentration of 10,000 cells/well on a 96-well plate and allowed to attach and proliferate overnight. Media was removed, and various liquid crystals and PBS were added (25 μL/well). PBS was used as a control. […] 50 μL of Calcein-AM (0.6 μM) was added to each well, and the plate was incubated for an additional 2 hours to allow for an increase in fluorescence. Fluorescence was measured at 485 nm using 530 nm excitation from a Cytofluor 4000 TC automated plate reader.
To quantify the viability of cells treated with liquid crystals, viability/cytotoxicity assays were conducted. […]

[2] = system: 3T3 fibroblasts; details: liquid crystal layer about 1 mm, 4 to 8 hours

## CCCCCc1ccc(-c2ccc(C#N)cc2)cc1 [5CB, 4-cyano-4′-pentylbiphenyl]
[1]
  toxicity to cells (in words): toxic
[2]
  morphology/spreading of plated cells immersed under liquid crystal: bulge up or “round up”
